± gives the standard error. Variants at the floor of the assay are shown more often than the library holds them.
B1: glmS ribozyme (parent)
chain: AUAAAAGCGCCAGAACUACAGAAAUGUAGUUGACGAGGAGGAGGUUUAUCGAAUUUUCGGCGGAUGCCUCCAAA

How the values were obtained:
Settings in all cases: with glucosamine-6-phosphate
glucosamine-6-phosphate [1] = variants of: B1; experiment: kcat; higher = faster cleavage; RNA array
How it was run: (§1)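 Barcoded ribozyme variants were transcribed in situ on sequenced MiSeq chips by E. coli RNA polymerase. At 37 °C, a hybridised Cy3 probe tracked them while glucosamine-6-phosphate (40 μM to 10 mM) in HEPES/KCl/Mg(OAc)2 buffer flowed in and tiles were imaged over ~14 h. Per-tile medians of signals normalised to baseline and to non-cleaving reference variants were fit to one- or two-exponential decays, giving kobs. kcat and KM came from weighted Michaelis–Menten fits across concentrations.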

glucosamine-6-phosphate [2] = variants of: B1; experiment: self-cleavage kobs at 40 uM GlcN6P; higher = faster cleavage; RNA array
How it was run: as §1

glucosamine-6-phosphate [3] = variants of: B1; experiment: self-cleavage kobs at 640 uM GlcN6P; higher = faster cleavage; RNA array
How it was run: as §1

glucosamine-6-phosphate [4] = variants of: B1; experiment: self-cleavage kobs at 160 uM GlcN6P; higher = faster cleavage; RNA array
How it was run: as §1

glucosamine-6-phosphate [5] = variants of: B1; experiment: self-cleavage kobs at 10000 uM GlcN6P; higher = faster cleavage; RNA array
How it was run: as §1

glucosamine-6-phosphate [6] = variants of: B1; experiment: self-cleavage kobs at 2500 uM GlcN6P; higher = faster cleavage; RNA array
How it was run: as §1

| Variant | kcat (glucosamine-6-phosphate [1]) [s⁻¹] | self-cleavage kobs at 40 uM GlcN6P (glucosamine-6-phosphate [2]) [s⁻¹] | self-cleavage kobs at 640 uM GlcN6P (glucosamine-6-phosphate [3]) [s⁻¹] | self-cleavage kobs at 160 uM GlcN6P (glucosamine-6-phosphate [4]) [s⁻¹] | self-cleavage kobs at 10000 uM GlcN6P (glucosamine-6-phosphate [5]) [s⁻¹] | self-cleavage kobs at 2500 uM GlcN6P (glucosamine-6-phosphate [6]) [s⁻¹] |
| --- | --- | --- | --- | --- | --- | --- |
| G51U U65G | < 1e-05 | < 1e-05 | < 1e-05 | < 1e-05 | < 1e-05 |  |
| A53G G62U | < 1e-05 | < 1e-05 |  |  | < 1e-05 |  |
| U54C G62U | < 1e-05 | < 1e-05 |  | < 1e-05 | < 1e-05 | < 1e-05 |
| U55G C61U | < 1e-05 | < 1e-05 |  |  |  |  |
| U56A C61A | < 1e-05 |  |  |  |  |  |
| U56G G62U | < 1e-05 | < 1e-05 | < 1e-05 |  | < 1e-05 |  |
| U57A A64C | < 1e-05 |  | < 1e-05 |  |  |  |
| U57G G66C | < 1e-05 |  |  |  |  |  |
| C58G G62C | < 1e-05 | < 1e-05 |  |  |  |  |
| G60A C68U | < 1e-05 |  |  | < 1e-05 |  |  |
| C61A G63C | < 1e-05 |  |  |  |  |  |
| C61G C70A | < 1e-05 |  |  |  | < 1e-05 |  |
| G62A G63U | < 1e-05 | < 1e-05 | < 1e-05 |  | < 1e-05 |  |
| G63U C68U | < 1e-05 |  |  |  | < 1e-05 |  |
| G63U C70U | < 1e-05 | < 1e-05 |  |  |  |  |
| A64G C68G | < 1e-05 | < 1e-05 |  | < 1e-05 |  |  |
| U65G C68G | < 1e-05 |  |  |  |  |  |
| A1C U56G |  | 0.000433 ± 9.4e-05 |  |  |  |  |
| A6C A12C |  | < 1e-05 |  |  |  |  |

| Variant | kcat (glucosamine-6-phosphate [1]) [s⁻¹] | self-cleavage kobs at 40 uM GlcN6P (glucosamine-6-phosphate [2]) [s⁻¹] | self-cleavage kobs at 640 uM GlcN6P (glucosamine-6-phosphate [3]) [s⁻¹] | self-cleavage kobs at 160 uM GlcN6P (glucosamine-6-phosphate [4]) [s⁻¹] | self-cleavage kobs at 10000 uM GlcN6P (glucosamine-6-phosphate [5]) [s⁻¹] | self-cleavage kobs at 2500 uM GlcN6P (glucosamine-6-phosphate [6]) [s⁻¹] |
| --- | --- | --- | --- | --- | --- | --- |
| A6C A14C |  | < 1e-05 |  | < 1e-05 |  |  |
| A6C A14U C16G |  | < 1e-05 |  |  |  |  |
| A6C A15C U54C C71U |  | < 1e-05 |  |  |  |  |
| A6C A33U G60A |  | < 1e-05 |  |  | < 1e-05 |  |
| A6C A39C G62U |  | < 1e-05 | < 1e-05 |  | < 1e-05 | < 1e-05 |
| A6C A64C C71U |  | < 1e-05 | < 1e-05 |  | < 1e-05 |  |
| A6C C10G G32A A39G U65G |  | < 1e-05 | < 1e-05 |  |  | < 1e-05 |
| A6C C34U |  | < 1e-05 |  |  |  |  |
| A6C C58A |  | < 1e-05 |  | < 1e-05 | < 1e-05 |  |
| A6C C68A |  | < 1e-05 |  |  | < 1e-05 | < 1e-05 |
| A6C G7C C11G U55G |  | < 1e-05 |  |  | < 1e-05 |  |
| A6C G9C G44U |  | < 1e-05 |  |  |  |  |
| A6C G13U G35A C71A |  | < 1e-05 |  |  |  |  |
| A6C G29U G32A U45A G60A |  | < 1e-05 |  |  |  |  |
| A6C G32A C68A |  | < 1e-05 | < 1e-05 |  |  |  |
| A6C G32C A36G |  | < 1e-05 |  |  | < 1e-05 |  |
| A6C G37C G63A |  | < 1e-05 |  |  | < 1e-05 |  |
| A6C G38U A64G |  | < 1e-05 |  |  |  |  |
| A6C G41U |  | < 1e-05 | < 1e-05 | < 1e-05 |  |  |

| Variant | kcat (glucosamine-6-phosphate [1]) [s⁻¹] | self-cleavage kobs at 40 uM GlcN6P (glucosamine-6-phosphate [2]) [s⁻¹] | self-cleavage kobs at 640 uM GlcN6P (glucosamine-6-phosphate [3]) [s⁻¹] | self-cleavage kobs at 160 uM GlcN6P (glucosamine-6-phosphate [4]) [s⁻¹] | self-cleavage kobs at 10000 uM GlcN6P (glucosamine-6-phosphate [5]) [s⁻¹] | self-cleavage kobs at 2500 uM GlcN6P (glucosamine-6-phosphate [6]) [s⁻¹] |
| --- | --- | --- | --- | --- | --- | --- |
| A6C G51U |  | < 1e-05 | < 1e-05 | < 1e-05 | < 1e-05 |  |
| A6C G59U |  | < 1e-05 |  | < 1e-05 |  | < 1e-05 |
| A6C U31A |  | < 1e-05 | < 1e-05 |  | 3.99e-05 ± 1.3e-05 |  |
| A6C U46A U49A |  | < 1e-05 |  | < 1e-05 |  |  |
| A6C U46C |  | < 1e-05 | < 1e-05 | < 1e-05 |  |  |
| A6C U47A G51U |  | < 1e-05 |  |  |  | < 1e-05 |
| A6C U54C U55C |  | < 1e-05 |  |  |  |  |
| A6C U55G U69C |  | < 1e-05 | < 1e-05 |  |  |  |
| A6G A12C U45G C58U G59C G62A C68G |  | < 1e-05 |  |  | < 1e-05 |  |
| A6G A12G A36U G43C |  | < 1e-05 | < 1e-05 |  | < 1e-05 | < 1e-05 |
| A6G A12U G37C |  | < 1e-05 | < 1e-05 | < 1e-05 | < 1e-05 | < 1e-05 |
| A6G A14C G62U G63U |  | < 1e-05 |  |  |  |  |
| A6G A14G A53C |  | < 1e-05 |  |  |  |  |
| A6G A14G G38A G63C |  | < 1e-05 |  |  | < 1e-05 |  |
| A6G A14U U55G C68G |  | < 1e-05 |  |  |  |  |
| A6G A15C A53G |  | < 1e-05 |  |  |  | 6.25e-05 ± 2e-05 |
| A6G A15C C70A |  | < 1e-05 |  |  |  |  |
| A6G A42C G43A G44C C50U A52C |  | < 1e-05 | < 1e-05 | < 1e-05 | < 1e-05 | < 1e-05 |

From the supplement of paper PMC7125110
